We go through seven molecules from patent US20220025050A1 (OSE IMMUNOTHERAPEUTICS, published 2022).

Usually EC50 stands for the midpoint of the concentration-response curve. Usually IC50 stands for the concentration needed to halve the response being measured. A lower IC50 goes with greater potency.

In test [1] the target is T1, recombinant hPD1 (Sino Biologicals, reference 10377-H08H) (human, UniProt Q15116 in part).
T1 construct: also called Human recombinant PD-1 protein; PD1-His recombinant protein
In words: ELISA: hPD-1 immobilized (FIG. 4, Table 1). (In general: In an ELISA, binding on a coated surface is turned into a signal by an enzyme label.)

Test [2] addresses T1, recombinant hPD1 (Sino Biologicals, …). In words: ELISA: hPD-1 immobilized, anti-human Fc peroxidase.
Test [3] has as its target T2, biotinylated Human PD1 (AcroBiosystems, reference EP-101) (human, UniProt Q15116 in part, limits assumed, biotinylated).
T2 construct: also called biotinylated recombinant human PD-1; recombinant biotinylated PD1 protein
In words: competition ELISA: PD-L1 immobilized, biotinylated PD-1 at fixed concentration, antibody varied. As to the method: FIG. 8: Competition PD-1/PD-L1 or PD-L2 ELISA assay. […] (D): PD-1/PD-L2 antagonist activity. […] Similar protocol as PD-L1/PD-1 assay was used for revelation. In this experiment, the bifunctional molecule comprises a humanized anti-PD1 antibody having a heavy chain variable domain as disclosed in SEQ ID NO: 24 and a light chain variable domain as disclosed in SEQ ID NO:28.
Competitive ELISA assay was performed by PD-1:PD-L1 Inhibitor Screening ELISA Assay Pair (AcroBiosystems; USA; reference EP-101). In this assay, recombinant hPDL1 was immobilized on plastic at 2 μg/ml in PBS pH 7.4 buffer. […] Same ELISA protocol was performed to assess PDL2/PD1 antagonist activity by coating PD-L2 Fc recombinant protein (Sinobiological, #10292-H02H).

The target in test [4] is T1, recombinant hPD1 (Sino Biologicals, …). In words: ELISA: hPD-1 immobilized, anti-human Fc peroxidase. This is another data set of the same source.

B1: Anti-PD1 VL fusion to Cytokine-protein A (IL-7), FIG. 4 / Table 1 (other)
chain 1: QIQLVQSGSELKKPGASVKVSCKASGYTFTHYAMNWVRQAPGQGLEWMGWINTNTGEPTYAQGFTGRFVFSLDTSVSTAYLQISSLKAEDTAVYYCAREREPGMDTWGQGTLVTVSSASTKGPSVFPLAPCSRSTSESTAALGCLVKDYFPEPVTVSWNSGALTSGVHTFPAVLQSSGLYSLSSVVTVPSSSLGTKTYTCNVDHKPSNTKVDKRV[human IgG4 Fc with S228P L445P (EU numbers) omitted here]
chain 2: DVVMTQSPLSLPVTLGQPASISCRSSQSLVHANTNTYLEWYQQRPGQSPRLLIYKVSNRFSGVPDRFSGSGSGTDFTLKISRVEAEDVGVYYCFQGTHVPNTFGQGTKLEIKRTVAAPSVFIFPPSDEQLKSGTASVVCLLNNFYPREAKVQWKVDNALQSGNSQESVTEQDSKDSTYSLSSTLTLSKADYEKHKVYACEVTHQGLSSPVTKSFNRGECGGGGSGGGGSGGGGSDCDIEGKDGKQYESVLMVSIDQLLDSMKEIGSNCLNNEFNFFKRHICDANKEGMFLFRAARKLRQFLKMNSTGDFDLHLLKVSEGTTILLNCTGQVKGRKPAALGEAQPTKSLEENKSLKEQKKLNDLCFLKRLLQEIKTCWNKILMGTKEH
For B1, the EC50 in test [1] was under 0.01 µg/mL; in test [2], 0.00511 µg/mL.

B2: Humanized anti-PD1 (VH SEQ ID NO:24, VL SEQ ID NO:28) VL fusion to Cytokine-protein A (IL-7) (other)
heavy: QIQLVQSGSELKKPGASVKVSCKASGYTFTHYAMNWVRQAPGQGLEWMGWINTNTGEPTYAQGFTGRFVFSLDTSVSTAYLQISSLKAEDTAVYYCAREREPGMDNWGQGTLVTVSSASTKGPSVFPLAPCSRSTSESTAALGCLVKDYFPEPVTVSWNSGALTSGVHTFPAVLQSSGLYSLSSVVTVPSSSLGTKTYTCNVDHKPSNTKVDKRV[human IgG4 Fc with S228P L445P (EU numbers) omitted here]
light: DVVMTQSPLSLPVTLGQPASISCRSSQSLVHANTNTYLEWYQQRPGQSPRLLIYKVSNRFSGVPDRFSGSGSGTDFTLKISRVEAEDVGVYYCFQGTHVPNTFGQGTKLEIKRTVAAPSVFIFPPSDEQLKSGTASVVCLLNNFYPREAKVQWKVDNALQSGNSQESVTEQDSKDSTYSLSSTLTLSKADYEKHKVYACEVTHQGLSSPVTKSFNRGECGGGGSGGGGSGGGGSDCDIEGKDGKQYESVLMVSIDQLLDSMKEIGSNCLNNEFNFFKRHICDANKEGMFLFRAARKLRQFLKMNSTGDFDLHLLKVSEGTTILLNCTGQVKGRKPAALGEAQPTKSLEENKSLKEQKKLNDLCFLKRLLQEIKTCWNKILMGTKEH
notes: Bifunctional molecule; also called Anti-PD1 fused to Cytokine-protein A (IL-7), VL fusion
In turn, B2 registered an IC50 in test [3] of 0.517 µg/mL.

B3: Humanized anti-PD1 (VH SEQ ID NO:24, VL SEQ ID NO:28) VL fusion to Type II-protein B (4-1BBL) (other)
heavy: QIQLVQSGSELKKPGASVKVSCKASGYTFTHYAMNWVRQAPGQGLEWMGWINTNTGEPTYAQGFTGRFVFSLDTSVSTAYLQISSLKAEDTAVYYCAREREPGMDNWGQGTLVTVSSASTKGPSVFPLAPCSRSTSESTAALGCLVKDYFPEPVTVSWNSGALTSGVHTFPAVLQSSGLYSLSSVVTVPSSSLGTKTYTCNVDHKPSNTKVDKRV[human IgG4 Fc with S228P L445P (EU numbers) omitted here]
light: DVVMTQSPLSLPVTLGQPASISCRSSQSLVHANTNTYLEWYQQRPGQSPRLLIYKVSNRFSGVPDRFSGSGSGTDFTLKISRVEAEDVGVYYCFQGTHVPNTFGQGTKLEIKRTVAAPSVFIFPPSDEQLKSGTASVVCLLNNFYPREAKVQWKVDNALQSGNSQESVTEQDSKDSTYSLSSTLTLSKADYEKHKVYACEVTHQGLSSPVTKSFNRGECGGGGSGGGGSGGGGSREGPELSPDDPAGLLDLRQGMFAQLVAQNVLLIDGPLSWYSDPGLAGVSLTGGLSYKEDTKELVVAKAGVYYVFFQLELRRVVAGEGSGSVSLALHLQPLRSAAGAAALALTVDLPPASSEARNSAFGFQGRLLHLSAGQRLGVHLHTEARARHAWQLTQGATVLGLFRVTPEIPAGLPSPRSE
notes: Bifunctional molecule; also called Anti-PD1 fused to Type II-protein B (4-1BBL), VL fusion
With B3, the IC50 in test [3] was determined as 0.355 µg/mL.

B4: Humanized anti-PD1 (VH SEQ ID NO:24, VL SEQ ID NO:28) VL fusion to Type I-protein A (CD86) (other)
heavy: QIQLVQSGSELKKPGASVKVSCKASGYTFTHYAMNWVRQAPGQGLEWMGWINTNTGEPTYAQGFTGRFVFSLDTSVSTAYLQISSLKAEDTAVYYCAREREPGMDNWGQGTLVTVSSASTKGPSVFPLAPCSRSTSESTAALGCLVKDYFPEPVTVSWNSGALTSGVHTFPAVLQSSGLYSLSSVVTVPSSSLGTKTYTCNVDHKPSNTKVDKRV[human IgG4 Fc with S228P L445P (EU numbers) omitted here]
light: DVVMTQSPLSLPVTLGQPASISCRSSQSLVHANTNTYLEWYQQRPGQSPRLLIYKVSNRFSGVPDRFSGSGSGTDFTLKISRVEAEDVGVYYCFQGTHVPNTFGQGTKLEIKRTVAAPSVFIFPPSDEQLKSGTASVVCLLNNFYPREAKVQWKVDNALQSGNSQESVTEQDSKDSTYSLSSTLTLSKADYEKHKVYACEVTHQGLSSPVTKSFNRGECGGGGSGGGGSGGGGSAPLKIQAYFNETADLPCQFANSQNQSLSELVVFWQDQENLVLNEVYLGKEKFDSVHSKYMGRTSFDSDSWTLRLHNLQIKDKGLYQCIIHHKKPTGMIRIHQMNSELSVLANFSQPEIVPISNITENVYINLTCSSIHGYPEPKKMSVLLRTKNSTIEYDGVMQKSQDNVTELYDVSISLSVSFPDVTSNMTIFCILETDKTRLLSSPFSIELEDPQPPPDH
notes: Bifunctional molecule; also called Anti-PD1 fused to Type I-protein A (CD86), VL fusion
For the molecule B4, the half-maximal inhibitory concentration (IC50) in test [3] was 0.351 µg/mL.

B5: Humanized anti-PD1 (VH SEQ ID NO:24, VL SEQ ID NO:28) VL fusion to Type II-protein A (OX40L) (other)
heavy: QIQLVQSGSELKKPGASVKVSCKASGYTFTHYAMNWVRQAPGQGLEWMGWINTNTGEPTYAQGFTGRFVFSLDTSVSTAYLQISSLKAEDTAVYYCAREREPGMDNWGQGTLVTVSSASTKGPSVFPLAPCSRSTSESTAALGCLVKDYFPEPVTVSWNSGALTSGVHTFPAVLQSSGLYSLSSVVTVPSSSLGTKTYTCNVDHKPSNTKVDKRV[human IgG4 Fc with S228P L445P (EU numbers) omitted here]
light: DVVMTQSPLSLPVTLGQPASISCRSSQSLVHANTNTYLEWYQQRPGQSPRLLIYKVSNRFSGVPDRFSGSGSGTDFTLKISRVEAEDVGVYYCFQGTHVPNTFGQGTKLEIKRTVAAPSVFIFPPSDEQLKSGTASVVCLLNNFYPREAKVQWKVDNALQSGNSQESVTEQDSKDSTYSLSSTLTLSKADYEKHKVYACEVTHQGLSSPVTKSFNRGECGGGGSGGGGSGGGGSQVSHRYPRIQSIKVQFTEYKKEKGFILTSQKEDEIMKVQNNSVIINCDGFYLISLKGYFSQEVNISLHYQKDEEPLFQLKKVRSVNSLMVASLTYKDKVYLNVTTDNTSLDDFHVNGGELILIHQNPGEFCVL
notes: Bifunctional molecule; also called Anti-PD1 fused to Type II-protein A (OX40L), VL fusion
The molecule B5 displayed a concentration for half-maximal inhibition (IC50) in test [3] of 0.307 µg/mL.

B6: Chimeric anti-PD1 fused on its heavy chain to Cytokine-protein A (IL-7) (other, not shown: small tags and cut ends)
heavy: QIQLVQSGPELKKPGETVKISCKASGYTFTHYGMNWVKQAPGKGLKWMGWINTNTGEPTYAEEFKGRFAFSLETSASAAFLQINNLKNEDTATYFCAKEREPGMDSWGQGTSVTVSSASTKGPSVFPLAPCSRSTSESTAALGCLVKDYFPEPVTVSWNSGALTSGVHTFPAVLQSSGLYSLSSVVTVPSSSLGTKTYTCNVDHKPSNTKVDKRV[human IgG4 Fc with S228P L445P (EU numbers) omitted here]DCDIEGKDGKQYESVLMVSIDQLLDSMKEIGSNCLNNEFNFFKRHICDANKEGMFLFRAARKLRQFLKMNSTGDFDLHLLKVSEGTTILLNCTGQVKGRKPAALGEAQPTKSLEENKSLKEQKKLNDLCFLKRLLQEIKTCWNKILMGTKEH
light: DVLLTQTPLSLPVSLGDQASISCRSSQNIVHANGNTYLEWYLQKPGQSPKLLIYKVSNRFSGVPDRFSGSGSGTDFTLKITRVEAEDLGVYYCFQGSHVPNTFGGGTKLEIKRTVAAPSVFIFPPSDEQLKSGTASVVCLLNNFYPREAKVQWKVDNALQSGNSQESVTEQDSKDSTYSLSSTLTLSKADYEKHKVYACEVTHQGLSSPVTKSFNRGEC
notes: Bifunctional molecule
With B6, the EC50 in test [4] was found to be 0.00518 µg/mL.

B7: Anti-PD1 VH fusion to Cytokine-protein A (IL-7), FIG. 4 / Table 1 (other)
chain 1: QIQLVQSGSELKKPGASVKVSCKASGYTFTHYAMNWVRQAPGQGLEWMGWINTNTGEPTYAQGFTGRFVFSLDTSVSTAYLQISSLKAEDTAVYYCAREREPGMDTWGQGTLVTVSSASTKGPSVFPLAPCSRSTSESTAALGCLVKDYFPEPVTVSWNSGALTSGVHTFPAVLQSSGLYSLSSVVTVPSSSLGTKTYTCNVDHKPSNTKVDKRV[human IgG4 Fc with S228P L445P (EU numbers) omitted here]GGGGSGGGGSGGGGSDCDIEGKDGKQYESVLMVSIDQLLDSMKEIGSNCLNNEFNFFKRHICDANKEGMFLFRAARKLRQFLKMNSTGDFDLHLLKVSEGTTILLNCTGQVKGRKPAALGEAQPTKSLEENKSLKEQKKLNDLCFLKRLLQEIKTCWNKILMGTKEH
chain 2: DVVMTQSPLSLPVTLGQPASISCRSSQSLVHANTNTYLEWYQQRPGQSPRLLIYKVSNRFSGVPDRFSGSGSGTDFTLKISRVEAEDVGVYYCFQGTHVPNTFGQGTKLEIKRTVAAPSVFIFPPSDEQLKSGTASVVCLLNNFYPREAKVQWKVDNALQSGNSQESVTEQDSKDSTYSLSSTLTLSKADYEKHKVYACEVTHQGLSSPVTKSFNRGEC
Take B7: the 50% effective concentration (EC50) in test [1] is under 0.01 µg/mL; in test [2] it was 0.005 µg/mL.
